Test results as given in the supplement of paper PMC8728848.
Some of the results follow.

Legend:
Test in all cases: glycan array binding signal (z-score within array); higher = stronger binding
Conditions in all cases: glycan notation: IUPAC condensed, linker removed
Fuc(a1-2)Gal = molecular target: Fuc(a1-2)Gal
Method in brief: (§1)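 Glycan array data came from 3228 arrays in the Consortium for Functional Glycomics database, and only arrays with an available protein sequence were kept. Glycan names were put into IUPAC-condensed notation, and columns mapping to the same glycan were averaged. The binding signal is a within-array Z-score, averaged across arrays of one protein sequence run at different concentrations or buffers and across linkers. A negative Z-score can be read as non-binding.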

Fuc(a1-2)Gal(b1-3)GalNAc = molecular target: Fuc(a1-2)Gal(b1-3)GalNAc
Method in brief: as §1

[1] = molecular target: Fuc(a1-2)Gal(b1-3)GalNAc(a1-3)[Fuc(a1-2)]Gal(b1-4)Glc
Method in brief: as §1

[2] = molecular target: Fuc(a1-2)Gal(b1-3)GalNAc(a1-3)[Fuc(a1-2)]Gal(b1-4)GlcNAc
Method in brief: as §1

[3] = molecular target: Fuc(a1-2)Gal(b1-3)GalNAc(b1-3)Gal
Method in brief: as §1

[4] = molecular target: Fuc(a1-2)Gal(b1-3)GalNAc(b1-3)Gal(a1-4)Gal(b1-4)Glc
Method in brief: as §1

[5] = molecular target: Fuc(a1-2)Gal(b1-3)GalNAc(b1-4)[Neu5Ac(a2-3)]Gal(b1-4)Glc
Method in brief: as §1

Fuc(a1-2)Gal(b1-3)GlcNAc = molecular target: Fuc(a1-2)Gal(b1-3)GlcNAc
Method in brief: as §1

[6] = molecular target: Fuc(a1-2)Gal(b1-3)GlcNAc(b1-2)Man(a1-3)[Fuc(a1-2)Gal(b1-3)GlcNAc(b1-2)Man(a1-6)]Man(b1-4)GlcNAc(b1-4)GlcNAc
Method in brief: as §1

[7] = molecular target: Fuc(a1-2)Gal(b1-3)GlcNAc(b1-2)Man(a1-3)[Fuc(a1-2)Gal(b1-3)GlcNAc(b1-2)Man(a1-6)]Man(b1-4)GlcNAc(b1-4)[Fuc(a1-6)]GlcNAc
Method in brief: as §1

[8] = molecular target: Fuc(a1-2)Gal(b1-3)GlcNAc(b1-3)Gal(b1-4)Glc
Method in brief: as §1

[9] = molecular target: Fuc(a1-2)Gal(b1-3)GlcNAc(b1-3)GalNAc
Method in brief: as §1

[10] = molecular target: Fuc(a1-2)Gal(b1-3)GlcNAc(b1-3)[Fuc(a1-2)Gal(b1-3)GlcNAc(b1-6)]GalNAc
Method in brief: as §1

[11] = molecular target: Fuc(a1-2)Gal(b1-3)GlcNAc(b1-3)[Gal(b1-4)GlcNAc(b1-6)]Gal(b1-4)Glc
Method in brief: as §1

[12] = molecular target: Fuc(a1-2)Gal(b1-3)GlcNAc(b1-3)[Neu5Ac(a2-6)Gal(b1-4)GlcNAc(b1-6)]Gal(b1-4)Glc
Method in brief: as §1

[13] = molecular target: Fuc(a1-2)Gal(b1-3)GlcNAc6S
Method in brief: as §1

[14] = molecular target: Fuc(a1-2)Gal(b1-3)[Fuc(a1-4)]GlcNAc
Method in brief: as §1

[15] = molecular target: Fuc(a1-2)Gal(b1-3)[Fuc(a1-4)]GlcNAc(b1-2)Man(a1-3)[Fuc(a1-2)Gal(b1-3)[Fuc(a1-4)]GlcNAc(b1-2)Man(a1-3)]Man(b1-4)GlcNAc(b1-4)GlcNAc
Method in brief: as §1

[16] = molecular target: Fuc(a1-2)Gal(b1-3)[Fuc(a1-4)]GlcNAc(b1-2)Man(a1-3)[Fuc(a1-2)Gal(b1-3)[Fuc(a1-4)]GlcNAc(b1-2)Man(a1-6)]Man(b1-4)GlcNAc(b1-4)[Fuc(a1-6)]GlcNAc(b1-4)[Fuc(a1-6)]GlcNAc
Method in brief: as §1

[17] = molecular target: Fuc(a1-2)Gal(b1-3)[Fuc(a1-4)]GlcNAc(b1-3)[Fuc(a1-3)[Gal(b1-4)]GlcNAc(b1-6)]Gal(b1-4)Glc
Method in brief: as §1

[18] = molecular target: Fuc(a1-2)Gal(b1-3)[Fuc(a1-4)]GlcNAc(b1-3)[Gal(b1-4)GlcNAc(b1-6)]Gal(b1-4)Glc
Method in brief: as §1

Fuc(a1-2)Gal(b1-4)Glc = molecular target: Fuc(a1-2)Gal(b1-4)Glc
Method in brief: as §1

Fuc(a1-2)Gal(b1-4)Glc6S = molecular target: Fuc(a1-2)Gal(b1-4)Glc6S
Method in brief: as §1

Fuc(a1-2)Gal(b1-4)GlcNAc = molecular target: Fuc(a1-2)Gal(b1-4)GlcNAc
Method in brief: as §1

[19] = molecular target: Fuc(a1-2)Gal(b1-4)GlcNAc(b1-2)Man
Method in brief: as §1

[20] = molecular target: Fuc(a1-2)Gal(b1-4)GlcNAc(b1-2)Man(a1-3)[Fuc(a1-2)Gal(b1-4)GlcNAc(b1-2)Man(a1-6)]Man(b1-4)GlcNAc(b1-4)GlcNAc
Method in brief: as §1

[21] = molecular target: Fuc(a1-2)Gal(b1-4)GlcNAc(b1-2)Man(a1-3)[Fuc(a1-2)Gal(b1-4)GlcNAc(b1-2)Man(a1-6)]Man(b1-4)GlcNAc(b1-4)[Fuc(a1-6)]GlcNAc
Method in brief: as §1

[22] = molecular target: Fuc(a1-2)Gal(b1-4)GlcNAc(b1-2)[Fuc(a1-2)Gal(b1-4)GlcNAc(b1-4)]Man(a1-3)[Fuc(a1-2)Gal(b1-4)GlcNAc(b1-2)Man(a1-6)]Man(b1-4)GlcNAc(b1-4)GlcNAc
Method in brief: as §1

[23] = molecular target: Fuc(a1-2)Gal(b1-4)GlcNAc(b1-3)Gal(b1-4)GlcNAc
Method in brief: as §1

[24] = molecular target: Fuc(a1-2)Gal(b1-4)GlcNAc(b1-3)Gal(b1-4)GlcNAc(b1-2)Man(a1-3)[Fuc(a1-2)Gal(b1-4)GlcNAc(b1-3)Gal(b1-4)GlcNAc(b1-2)Man(a1-6)]Man(b1-4)GlcNAc(b1-4)GlcNAc
Method in brief: as §1

B1: LecB PA14 (Pseudomonas aeruginosa) (protein)
chain: MATQGVFTLPANTQFGVTAFANSAGTQTVNVQVNNETVATFTGQSTNNAIIGSKVLNSGGGGKVQILVSVNGRSSDLVSAQVILANELNFALVGSEDSTDNDYNDAVVVINWPLG
In the case of B1, the “glycan array binding signal (z-score)” value (Fuc(a1-2)Gal) is reported as 1.44, the “glycan array binding signal (z-score)” value (Fuc(a1-2)Gal(b1-3)GalNAc) is reported as 0.624 and the “glycan array binding signal (z-score)” value [1] is reported as 1.11. The “glycan array binding signal (z-score)” value [2] was 0.586, the “glycan array binding signal (z-score)” value [3] was -0.106 and the “glycan array binding signal (z-score)” value [4] was 0.395. The “glycan array binding signal (z-score)” value [5] was -0.125, the “glycan array binding signal (z-score)” value (Fuc(a1-2)Gal(b1-3)GlcNAc) was 0.145 and the “glycan array binding signal (z-score)” value [6] was 1.32. The “glycan array binding signal (z-score)” value [7] was 0.699, the “glycan array binding signal (z-score)” value [8] was -0.469 and the “glycan array binding signal (z-score)” value [9] was 0.422. For the same binder, the “glycan array binding signal (z-score)” value [10] was 1.75, the “glycan array binding signal (z-score)” value [11] was 0.316 and the “glycan array binding signal (z-score)” value [12] was 0.308. For the same binder, the “glycan array binding signal (z-score)” value [13] was 0.274, the “glycan array binding signal (z-score)” value [14] was 2.93 and the “glycan array binding signal (z-score)” value [15] was 0.249. For the same binder, the “glycan array binding signal (z-score)” value [16] was 0.831, the “glycan array binding signal (z-score)” value [17] was 0.122 and the “glycan array binding signal (z-score)” value [18] was 0.282. For the same binder, the “glycan array binding signal (z-score)” value (Fuc(a1-2)Gal(b1-4)Glc) was 0.378, the “glycan array binding signal (z-score)” value (Fuc(a1-2)Gal(b1-4)Glc6S) was 1.98 and the “glycan array binding signal (z-score)” value (Fuc(a1-2)Gal(b1-4)GlcNAc) was 1.12. The “glycan array binding signal (z-score)” value [19] was -0.349, the “glycan array binding signal (z-score)” value [20] was 2.03 and the “glycan array binding signal (z-score)” value [21] was 2.75. The “glycan array binding signal (z-score)” value [22] was 4.68, the “glycan array binding signal (z-score)” value [23] was 0.277 and the “glycan array binding signal (z-score)” value [24] was 7.45.
